Laboratory results published in PubChem BioAssay AID1508623 (National Center for Advancing Translational Sciences (NCATS), 2021).
Out of some 48,000 compounds screened, about 450 (0.94%) were called active. The inconclusive results got no clear call from the source; some entries with a clear call stand among them for comparison. Calls follow the shape of the dose curve; as a rule, active = well fitted inhibition curve with a large enough effect; inconclusive = small, poorly fitted or top-dose-only effect; inactive = no such curve, though single readings can be large or run the other way. Potencies beside an inconclusive call are fits to weak or partial responses and may not hold up.

Assay: Primary qHTS for Identification of Small Molecule Inhibitors of Huntingtin Promoter Activity; also: nearly all actives have a fitted effect of over 50% in size
Details: HEK293 HTT promoter firefly luciferase reporter (activity 0% = vehicle and -100% = no light), 24 h; series mostly up to 57.5 µM
Summary of the method: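 Firefly luciferase signal from promoter-reporter HEK293 cells was scaled between vehicle (0%) and zero RLU (-100%). Compounds were tested at final concentrations of up to 57.5 uM over 24 h at 37 degrees C. PTC124 at 50 uM final served as control inhibitor.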
Potency is read from the fitted curve at half-maximal effect; tags tell the direction and shape of the fitted curve.

Potency, inactive:
CCCNC(C)C(=O)Nc1ccccc1C (centres undefined)
O=C(Nc1ccc(OC(F)(F)F)cc1)c1sccc1NCc1ccnc2ccccc12
COc1ccc(-c2nc3c(c(SCc4ccc(Br)cc4)n2)Cc2c(CO)cnc(C)c2O3)cc1
CN1CCN(C(=O)c2ccc3c(c2)N(Cc2ccc(C(F)(F)F)cc2)C(=O)c2ccccc2S3)CC1
Cc1ccc(C)c(Nc2nn3c(=O)c4ccc(C(=O)NCc5ccccc5)cc4nc3s2)c1
CC(C)c1ccc(C2NC(=O)c3c(sc4c3CCN(C)C4)N2)cc1 (centres undefined)
CCCCC(=O)OC1=CN(Cc2ccccc2)S(=O)(=O)c2ccccc21
CCS(=O)(=O)c1ncc(N(Cc2ccccc2)Cc2ccco2)c(C(=O)Nc2ccccc2C)n1
COc1ccc(CNC(=O)CCc2c(C)nc3cc(-c4ccc(OC)cc4OC)nn3c2C)cc1
Cc1oc(=O)oc1COC(=O)[C@@H]1N2C(=O)[C@@H](NC(=O)[C@H](N)c3ccccc3)[C@H]2SC1(C)C
Clc1cccc(-c2nnnn2Cc2cccnc2)c1Cl

Potency, inconclusive:
CCN(CCCNC(=O)c1ccc(Sc2ccc(Cl)cc2)c(NC(C)=O)c1)c1ccccc1 39.8 µM [inhibitor, single point]
O=C(c1cccs1)N(Cc1cccnc1)c1nc2c(F)cc(F)cc2s1 14.1 µM [inhibitor, partial curve, poor fit]
CCN(CC)S(=O)(=O)c1nnc(NC(=O)c2ccc(Br)cc2)s1 39.8 µM [inhibitor, single point]
Cc1cc(NC(=O)Cn2c(=O)oc3cc(S(=O)(=O)N4CCCC4)ccc32)ccc1Br 14.1 µM [inhibitor, partial curve]
COc1ccc(CCNC(=O)C2CCCN(S(=O)(=O)c3ccc4c(c3)oc(=O)n4C)C2)cc1OC (centres undefined) 28.2 µM [inhibitor, single point]
O=S(=O)(c1ccccc1)c1nc(-c2cccc(Cl)c2)oc1N1CCOCC1 31.6 µM [inhibitor, single point]
Cc1ccc2c(Br)cc(Br)c(O)c2n1 20 µM [inhibitor, partial curve, poor fit]
CCC(=O)Nc1ccccc1-c1nc2ccccc2n(C(CC)C(=O)Nc2cccc(Cl)c2)c1=O (centres undefined) 28.2 µM [inhibitor, partial curve, poor fit]
COc1ccc(CCN2C(=O)c3[nH]nc(-c4ccccc4O)c3C2c2ccccc2)cc1 (centres undefined) 22.4 µM [inhibitor, single point]
Nc1ncn([C@@H]2O[C@H](CO)[C@@H](O)[C@H]2O)c(=O)n1 39.8 µM [inhibitor, single point]
CC(CNC(=O)c1cnn(-c2ccc(F)cc2)c1-n1cccc1)c1ccccc1 (centres undefined) 22.4 µM [inhibitor, partial curve]
Cc1cc(C)cc(N2C(=O)CSC23C(=O)N(Cc2c(F)cccc2Cl)c2ccccc23)c1 (centres undefined) 25.1 µM [inhibitor, single point]
Cc1cccc2nc(-c3ccccn3)c(Nc3ccc(F)cc3)n12 28.2 µM [inhibitor, single point]
CCCCC(CC)CNC(=O)Cc1ccc(-n2c(=O)[nH]c3ccccc3c2=O)cc1 (centres undefined) 15.8 µM [inhibitor, partial curve, poor fit]
COc1ccc(N2CCN(S(=O)(=O)c3ccc(-c4coc(C)n4)cc3)CC2)cc1 39.8 µM [inhibitor, single point]
Cc1cc(Nc2ccc(F)cc2F)nc(-n2nc(C)cc2C)n1 31.6 µM [inhibitor, partial curve, poor fit]
CCc1cc2c(cc3c(=O)n(CCCC(=O)NCc4cccc(Br)c4)ncn32)s1 12.6 µM [inhibitor, partial curve]
Cc1ccc(-n2ncc(C(=O)NCc3ccc4c(c3)OCO4)c2C2CCN(C(=O)OC(C)(C)C)CC2)c(C)c1 39.8 µM [inhibitor, single point]
COc1ccc(CCNC(=O)CSc2cn(CCNC(=O)c3c(F)cccc3F)c3ccccc23)cc1OC 39.8 µM [inhibitor, single point]
COc1ccc(Cn2ccc3nc(C)c(C(=O)NCc4ccc(SC)cc4)cc3c2=O)cc1 1.78 µM [inhibitor, full curve]
COc1ccc(Br)cc1Cn1nnc(C(=O)Nc2cccc(SC)c2)c1N 25.1 µM [inhibitor, single point]
COc1cc(CNC(=O)c2cc3n(n2)CCCN(Cc2cccc(F)c2)C3=O)cc(OC)c1OC 35.5 µM [inhibitor, partial curve, poor fit]
Cc1nn(CCC(=O)Nc2cccc(C#N)c2)c(C)c1S(=O)(=O)N1CCCCC1 35.5 µM [inhibitor, partial curve, poor fit]
COc1cccc(C(=O)Nc2nnc(S(=O)(=O)N3CCCc4ccccc43)s2)c1 39.8 µM [inhibitor, single point]
COc1ccc(OC)c(S(=O)(=O)NCCS(=O)(=O)N2CCN(c3ccccc3F)CC2)c1 39.8 µM [inhibitor, single point]
Cc1ccc(OCCn2c(C3CC(=O)N(Cc4ccc(F)cc4)C3)nc3ccccc32)c(C)c1 (centres undefined) 31.6 µM [inhibitor, partial curve]
O=S(=O)(NCC(c1ccccc1)N1CCc2ccccc21)c1ccc(Cl)cc1 (centres undefined) 35.5 µM [inhibitor, partial curve, poor fit]
Cc1cccc(N2CCN(c3nc4ccccc4c4nnc(C)n34)CC2)c1C 2.82 µM [inhibitor, single point]
COc1ccc(C(=O)CC2(O)C(=O)Nc3c(Cl)ccc(Cl)c32)cc1 (centres undefined) 3.85 µM [inhibitor, partial curve]
COc1ccc(OCC(=O)NCc2ccc3c(c2)CCN3C(=O)c2cccc(C)c2)cc1 10 µM [inhibitor, partial curve]
O=C(NCC(c1ccc2c(c1)OCO2)N1CCN(c2ccccc2)CC1)c1ccc(F)c(F)c1 (centres undefined) 39.8 µM [inhibitor, single point]
O=C(Nc1ccc(F)cc1F)C1CCN(C(=O)c2cnn(-c3ccccc3)c2-n2cccc2)CC1 39.8 µM [inhibitor, partial curve, poor fit]
C=CCC(CC=C)(CNC(=O)C(=O)Nc1ccc(Br)cc1)c1ccc(OC)c(OC)c1 1.26 µM [inhibitor, full curve]
CC(C)(C)Cn1c(N)nc2ccc(-c3[nH]c(C(C)(C)C)nc3-c3ccc(F)cc3)nc21 24.3 µM [inhibitor, partial curve]
CCOc1ccc(NS(=O)(=O)c2c(C)nc3sc(CC)nn3c2=O)cc1 20 µM [inhibitor, partial curve]
Cc1ccc(C)c(NC(=O)c2nc(S(=O)(=O)Cc3ccc(F)cc3)ncc2Cl)c1 39.8 µM [inhibitor, single point]
CCc1ccccc1S(=O)(=O)Cc1ccc(C(=O)NCCc2ccc(Cl)cc2)o1 31.6 µM [inhibitor, single point]
OCCCNc1cc(-c2ccnc(Nc3cccc(Cl)c3)n2)ccn1 0.273 µM [inhibitor, full curve]
CC(C)=CCNc1ncnc2c1ncn2[C@@H]1O[C@H](CO)[C@@H](O)[C@H]1O 17.8 µM [inhibitor, partial curve, poor fit]
CCOC(=O)c1cc(-c2ccc(F)cc2)n(CCC(=O)NC2CCC(C)CC2)c1C (centres undefined) 28.2 µM [inhibitor, partial curve]
CCOc1ccc(NC(=O)c2nc(S(=O)(=O)Cc3ccccc3F)ncc2Cl)cc1 39.8 µM [inhibitor, single point]
O=C(NCCCN1CCN(c2ccccc2F)CC1)c1ccc2nc(CCc3ccccc3)oc2c1 39.8 µM [inhibitor, single point]
COc1ccc2c(c1)c(N1CCCC1=O)c(C(=O)Nc1ccc(OC)c(Cl)c1)n2C 35.5 µM [inhibitor, partial curve, poor fit]
CCc1ccc(NC(=O)c2cc(S(=O)(=O)NC3CCCCCC3)ccc2F)cc1 25.1 µM [inhibitor, partial curve, poor fit]
Cc1nn(-c2ccccc2)c2c1N(CCCC(=O)NC(C)c1ccccc1)C(=O)CS2 (centres undefined) 28.2 µM [inhibitor, single point]
Cc1nn(-c2ccccc2)c2c1N(CC(=O)N1CCN(c3ccc(Cl)cc3)CC1)C(=O)CS2 39.8 µM [inhibitor, partial curve, poor fit]
Cc1ccc(S(=O)(=O)c2cn(Cc3ccccc3)c3cc(N4CCOCC4)c(F)cc3c2=O)cc1 28.2 µM [inhibitor, single point]
CC1CCC(NC(=O)c2ccc(CSc3nc4ccncc4n3Cc3ccc(F)cc3)cc2)CC1 (centres undefined) 22.4 µM [inhibitor, partial curve]
